{"source": "PubChem BioAssay AID1508642", "about": "(National Center for Advancing Translational Sciences (NCATS), 2021)", "note": "In all, about 43,000 compounds went through this assay and about 200 (0.47%) were called active. Not shown: some 12% with an inconclusive outcome. Calls come from the whole dose curve; as a rule, active = well fitted cell-killing curve with a large enough effect; inconclusive = small, poorly fitted or top-dose-only effect, or effect the other way; inactive = flat fitted curve, though single readings scatter. This is one part of the list. % is set by controls: 0 for no effect and ±100 for the full control effect."}
{"test": "Cell viability qHTS assay in S16 Pmp22-F2sN cells; note: nearly all actives have a fitted effect of over 65% in size", "settings": "S16 Pmp22-F2sN Schwann cells (luciferase reporters placed in the Pmp22 gene) viability, CellTiter-Glo, 24 h; series mostly up to 57.5 µM; activity change, negative = cytotoxicity: at the top concentration", "summary_of_the_method": "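CellTiter-Glo counter-screen, qHTS, 1536-well. Cells: S16(c9) Pmp22-F2sN, 500-1,000/well in DMEM + 10% FBS. Cpd 23 nL pin transfer, 24 h, 37C/5% CO2. Read: luminescence, CCD imager.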"}
{"smiles": "COc1ccc(OC)c(NC(=O)C2Cc3ccccc3CN2S(=O)(=O)c2ccc(F)cc2)c1", "note": "(configuration not stated)", "activity change, negative = cytotoxicity": "inactive: -4.22%"}
{"smiles": "CC1=C(C(=O)Nc2ccc(Cl)cc2)C(c2ccccc2F)n2nc(SCc3cccc(Cl)c3)nc2N1", "note": "(configuration not stated)", "activity change, negative = cytotoxicity": "inactive: -2.8%"}
{"smiles": "Cc1ccc(-c2nc(CS(=O)CC(=O)NCc3ccccc3Cl)c(C)o2)cc1", "note": "(configuration not stated)", "activity change, negative = cytotoxicity": "inactive: 0.166%"}
{"smiles": "O=c1ccc2cc(S(=O)(=O)Nc3ccc(F)c(Cl)c3)ccc2[nH]1", "activity change, negative = cytotoxicity": "inactive: -2.74%"}
{"smiles": "CCOc1ccc2nc(SCC(=O)Nc3ccc(F)cc3)nc(-c3ccccc3)c2c1", "activity change, negative = cytotoxicity": "inactive: -0.181%"}
{"smiles": "COc1ccccc1NC(=O)CSC1=Nc2ccccc2C2=NC(CCC(=O)NCc3ccco3)C(=O)N12", "note": "(configuration not stated)", "activity change, negative = cytotoxicity": "inactive: 4.78%"}
{"smiles": "COC(=O)c1scc(-c2ccc(C)cc2)c1S(=O)(=O)Nc1cc(Cl)c(OC)cc1OC", "activity change, negative = cytotoxicity": "inactive: 18.9%"}
{"smiles": "CCCCOc1ccc(Cn2c(=O)sc3ccccc32)cc1OC", "activity change, negative = cytotoxicity": "inactive: -4.95%"}
{"smiles": "CCCn1c(CCC(=O)Nc2cc(OC)cc(OC)c2)nc2cccnc21", "activity change, negative = cytotoxicity": "inactive: -0.845%"}
{"smiles": "Cc1ccccc1CCNC(=O)c1ccc2c(c1)nc1n2CCOC1", "activity change, negative = cytotoxicity": "inactive: -1.62%"}
{"smiles": "CCOC(=O)c1[nH]cnc1C(=O)Nc1cccc(OC)c1", "activity change, negative = cytotoxicity": "inactive: -0.217%"}
{"smiles": "CCCn1c(CCC(=O)Nc2cc(C(=O)OC)cc(C(=O)OC)c2)nc2cccnc21", "activity change, negative = cytotoxicity": "inactive: 0.858%"}
{"smiles": "CCCN1CCN(c2nnc(-n3cccc3C(=O)Nc3cc(Cl)ccc3C)s2)CC1", "activity change, negative = cytotoxicity": "inactive: -1.7%"}
{"smiles": "CCSc1ncc(Cl)c(C(=O)Nc2nc3ccc(S(C)(=O)=O)cc3s2)n1", "activity change, negative = cytotoxicity": "inactive: 0.024%"}
{"smiles": "Cc1ccc(NC(=O)C2CCCN(S(=O)(=O)c3cccc4nsnc34)C2)cc1C", "note": "(configuration not stated)", "activity change, negative = cytotoxicity": "inactive: 0.907%"}
{"smiles": "COc1ccc(-n2c(=O)c3sc4ccccc4c3n(C)c2=O)cc1", "activity change, negative = cytotoxicity": "inactive: 13.4%"}
{"smiles": "Cc1cc(NC(=O)CCn2c(=O)c3cccn3c3cccnc32)ccc1Br", "activity change, negative = cytotoxicity": "inactive: 11.4%"}
{"smiles": "CCC(=O)N1c2ccccc2CC1C(=O)NCCc1cc(OC)c(OC)c(OC)c1", "note": "(configuration not stated)", "activity change, negative = cytotoxicity": "inactive: 2.8%"}
{"smiles": "CCc1cccc(NC(=O)CN(c2ccc(C)c(C)c2)S(=O)(=O)c2ccsc2C(=O)OC)c1", "activity change, negative = cytotoxicity": "inactive: -6.22%"}
{"smiles": "Cc1ccc(C)c(N2CCN(C(=O)CN3C(=O)COc4ccc(S(=O)(=O)N5CCCC5)cc43)CC2)c1", "activity change, negative = cytotoxicity": "inactive: 7.77%"}
{"smiles": "COc1ccc(C(=O)NCC(c2ccco2)S(=O)(=O)c2ccc(F)cc2)cc1", "note": "(configuration not stated)", "activity change, negative = cytotoxicity": "inactive: -1.7%"}
{"smiles": "Cc1ccc(C)c(Cn2c(=O)n(CCCCC(=O)NCc3ccc4c(c3)OCO4)c(=O)c3ccccc32)c1", "activity change, negative = cytotoxicity": "inactive: 5.14%"}
{"smiles": "CCCCn1cc(S(=O)(=O)c2cc(C)ccc2C)c(=O)c2cc(F)c(N3CCC(C)CC3)cc21", "activity change, negative = cytotoxicity": "inactive: -9.89%"}
{"smiles": "CCOC(=O)c1c(C)[nH]c(C)c1S(=O)(=O)N1CCC(C(=O)Nc2ccc(OCC)cc2)CC1", "activity change, negative = cytotoxicity": "inactive: -31.1%"}
{"smiles": "CC(C)OCCCNc1ncnc2sc3c(c12)CCCC3", "activity change, negative = cytotoxicity": "inactive: -9.95%"}
{"smiles": "CCCC(=O)Nc1cc2nn(-c3ccccc3)nc2cc1C", "activity change, negative = cytotoxicity": "inactive: 0.725%"}
{"smiles": "CCc1ccccc1NC(=O)Nc1c(C)n(C)n(-c2ccccc2)c1=O", "activity change, negative = cytotoxicity": "inactive: 0.13%"}
{"smiles": "CCOC(=O)c1ccc(N2C(=O)c3[nH]nc(-c4ccc(C)cc4)c3C2c2cccs2)cc1", "note": "(configuration not stated)", "activity change, negative = cytotoxicity": "inactive: -11.5%"}
{"smiles": "CSc1ncc(C(=O)Nc2ccccc2C(F)(F)F)c(-c2ccccc2)n1", "activity change, negative = cytotoxicity": "inactive: -1.62%"}
{"smiles": "CCCc1nc2nc(C)c(NS(=O)(=O)c3ccc(CC(C)C)cc3)c(=O)n2[nH]1", "activity change, negative = cytotoxicity": "inactive: 0.953%"}
{"smiles": "CCCCN(CCCC)CCCNC(=O)Cn1cc2c(n1)-c1c(oc(C(=O)N3CCCC3)c1C)CC2", "activity change, negative = cytotoxicity": "inactive: 1.73%"}
{"smiles": "CCOC(=O)c1[nH]c2c(c1Cc1ccccc1OC)C(=O)CC(c1ccc(OC)cc1)C2", "note": "(configuration not stated)", "activity change, negative = cytotoxicity": "inactive: -16.4%"}
{"smiles": "CCc1ccc(-n2c(=O)c3c4c(sc3n(Cc3cc(=O)n5c(C)cccc5n3)c2=O)CCC4)cc1", "activity change, negative = cytotoxicity": "inactive: 20.7%"}
{"smiles": "Cc1ccc(CNC(=O)c2nn(-c3ccc(Cl)cc3)nc2CO)cc1", "activity change, negative = cytotoxicity": "inactive: 28%"}
{"smiles": "Cc1ccccc1CSc1nnc2[nH]c(=O)cc(-c3ccccc3)n12", "activity change, negative = cytotoxicity": "inactive: 2.71%"}
{"smiles": "CCOC(=O)c1ccccc1NC(=O)Cn1ncc2c1-c1ccccc1OC2", "activity change, negative = cytotoxicity": "inactive: 16.2%"}
{"smiles": "Cc1cc(C)cc(NC(=O)CSc2oc(-c3ccccc3)nc2S(=O)(=O)c2ccc(Cl)cc2)c1", "activity change, negative = cytotoxicity": "inactive: -15.3%"}
{"smiles": "Cc1ccc(NC(=O)Cn2nc(C(F)(F)F)c3c2CCCC3)cc1C", "activity change, negative = cytotoxicity": "inactive: 20.3%"}
{"smiles": "Cc1ccc(N2C(=O)c3n[nH]c(C)c3C2c2ccc(Cl)cc2)cc1", "note": "(configuration not stated)", "activity change, negative = cytotoxicity": "inactive: 9.42%"}
{"smiles": "Cc1ccc2c(c1)N(CC(=O)NCCc1ccccc1)C(=O)CO2", "activity change, negative = cytotoxicity": "inactive: 2.07%"}
{"smiles": "CCc1ccccc1NS(=O)(=O)c1ccc2nc(-c3ccccc3)[nH]c2c1", "activity change, negative = cytotoxicity": "inactive: -14.2%"}
{"smiles": "CC(C)OCCCNC(=O)C(=O)Nc1c2c(nn1-c1ccccc1)CS(=O)(=O)C2", "activity change, negative = cytotoxicity": "inactive: -15.8%"}
{"smiles": "CCC(C)NC(=O)c1c(C)oc2ncn(CC(C)C)c(=O)c12", "note": "(configuration not stated)", "activity change, negative = cytotoxicity": "inactive: 9.01%"}
{"smiles": "CCCCNC(=O)CSc1nc2cc3c(cc2c(=O)n1CCCC(=O)NCCc1ccc(OC)c(OC)c1)OCO3", "activity change, negative = cytotoxicity": "inactive: 3.74%"}
{"smiles": "Cc1cc(C(=O)N2CCN(c3ccccc3)CC2)c2c(C)nn(-c3cccc(F)c3)c2n1", "activity change, negative = cytotoxicity": "inactive: 9.82%"}
{"smiles": "COc1cc(NC(=O)C2CCN(C(=O)c3sc4nc[nH]c(=O)c4c3C)CC2)cc(OC)c1OC", "activity change, negative = cytotoxicity": "inactive: 7.54%"}
{"smiles": "O=C(Cn1c(=O)n(CCc2ccccc2)c(=O)c2cccnc21)Nc1ccc(F)cc1", "activity change, negative = cytotoxicity": "inactive: -2.52%"}
